Test results: the antibiotic and cytotoxicity screens of Wong et al. (2023)
The other results are listed elsewhere or left out.

test system: HSkMC (human skeletal muscle cells); assay: cytotoxicity call (relative viability < 0.9); settings: 10 µM

| Compound | cytotoxicity call |
| --- | --- |
| C[C@@H]1CN([C@@H](C)CO)C(=O)c2cc(C#Cc3ccc(F)cc3)cnc2O[C@H]1CN(C)Cc1ccccn1 | inactive |
| COc1ccc(S(=O)(=O)Nc2ccc3c(c2)C(=O)N([C@H](C)CO)C[C@H](C)[C@H](CN(C)Cc2ccc(C(F)(F)F)cc2)OCCCC[C@@H](C)O3)cc1 | inactive |
| CCn1cc(C(=O)O)c(=O)c2cnc(N3CCNCC3)nc21 | inactive |
| CN(C)C(=O)C[C@H]1C=C[C@H](NC(=O)C2CCOCC2)[C@H](CO)O1 | inactive |
| COc1ccc(C#Cc2ccc3c(c2)O[C@@H](CN(C)C(=O)CN2CCOCC2)[C@@H](C)CN([C@@H](C)CO)S3(=O)=O)cc1 | inactive |
| COc1ccc(cc1)CN1C[C@]2(CN(C2)C(=O)C2CCOCC2)c2c(n(c3cc(ccc23)OC)C)[C@@H]1CO | inactive |
| C[C@H](CO)N1C[C@H](C)[C@@H](CN(C)Cc2ccc(C(F)(F)F)cc2)Oc2ccc(NC(=O)Nc3ccc4c(c3)OCO4)cc2C1=O | inactive |
| CC(C)NC(=O)Nc1ccc2c(c1)C(=O)N([C@H](C)CO)C[C@@H](C)[C@H](CN(C)C(=O)Nc1ccccc1)OCCCC[C@@H](C)O2 | inactive |
| Cc1cc(C(=O)Nc2cccc3c2O[C@H](CN(C)S(=O)(=O)c2cn(C)cn2)[C@@H](C)CN([C@H](C)CO)C3=O)n(C)n1 | inactive |
| CC(=O)O[C@@H]1[C@@H](OC(C)=O)[C@@H]2OC[C@@H](O2)[C@H]1OC(C)=O | inactive |
| COc1ccc(NC(=O)Nc2ccc3c(c2)C(=O)N([C@H](C)CO)C[C@H](C)[C@H](CN(C)Cc2ccc4c(c2)OCO4)OCCCC[C@@H](C)O3)cc1 | inactive |
| Cc1noc(C)c1NC(=O)N(C)C[C@@H]1OCCCC[C@@H](C)Oc2ccc(NS(=O)(=O)c3ccc(F)cc3)cc2C(=O)N([C@H](C)CO)C[C@H]1C | inactive |
| O=C(Nc1ccc2c(c1)[C@@H]1C[C@@H](CC(=O)N3CCc4ccccc4C3)O[C@H](CO)[C@@H]1O2)C1CCOCC1 | inactive |
| C[C@@H]1CN([C@H](C)CO)C(=O)c2cc(NS(C)(=O)=O)ccc2O[C@H]1CN(C)S(=O)(=O)c1cccs1 | inactive |
| Cc1ccc(S(=O)(=O)N[C@@H]2CC[C@@H](CCNC(=O)CN3CCOCC3)O[C@H]2CO)cc1 | inactive |
| Cc1ccc(S(=O)(=O)N(C)C[C@@H]2OCCCC[C@@H](C)Oc3ccc(NC(=O)Nc4ccc(C(F)(F)F)cc4)cc3C(=O)N([C@@H](C)CO)C[C@H]2C)cc1 | inactive |
| OCC1OC(OC2C(CO)OC(O)C(O)C2O)C(O)C(O)C1O (stereo not given) | inactive |
| C[C@@H]1CN([C@H](C)CO)C(=O)c2cc(NC(=O)Nc3ccc(C(F)(F)F)cc3)ccc2O[C@@H](C)CCCCO[C@@H]1CN(C)S(=O)(=O)c1cccs1 | inactive |
| COCC(=O)Nc1ccccc1C(=O)O | inactive |
| Cc1noc(C)c1NC(=O)Nc1cccc2c1O[C@@H](CN(C)C(=O)Nc1cccc3ccccc13)[C@@H](C)CN([C@@H](C)CO)C2=O | inactive |

| Compound | cytotoxicity call |
| --- | --- |
| COc1ccc(CN(C)C[C@@H]2Oc3ccc(NS(C)(=O)=O)cc3C(=O)N([C@H](C)CO)C[C@H]2C)cc1 | inactive |
| CCS(=O)(=O)NCC[C@@H]1CC[C@@H](NC(=O)C2CCOCC2)[C@@H](CO)O1 | inactive |
| O=C1Nc2ccccc2O[C@@H]1CCO | inactive |
| O=C(NCC(F)(F)F)[C@@H]1c2ccccc2C(=O)N(CC23CC4CC(CC(C4)C2)C3)[C@H]1c1ccc(CO)cc1 | inactive |
| CC(=O)O[C@@H]1[C@@H](O[C@@H]2O[C@H](CO)[C@@H](O)[C@H](O)[C@H]2O)[C@@H](O)[C@H](OC[C@H]2O[C@@H](Oc3c(-c4ccc(O)c(O)c4)oc4cc(O)cc(O)c4c3=O)[C@H](O)[C@@H](O)[C@H]2O)O[C@H]1C | inactive |
| Cc1cc2c(o1)CC(C)(C)CC2=O | inactive |
| C[C@H]1COc2c(C3(N)CC3)c(F)cc3c(=O)c(C(=O)O)cn1c23 | inactive |
| C[C@@H]1CCCCO[C@H](CN(C)C(=O)NC2CCCCC2)[C@H](C)CN([C@@H](C)CO)C(=O)c2cc(NC(=O)c3ccccc3)ccc2O1 | inactive |
| C[C@H](CO)N1C[C@H](C)[C@H](CN(C)C(=O)Nc2ccc(F)cc2)Oc2c(NC(=O)c3ccc(-c4nccs4)cc3)cccc2C1=O | inactive |
| C[C@@H]1CCCCO[C@@H](CN(C)S(=O)(=O)c2ccc(Cl)cc2)[C@H](C)CN([C@H](C)CO)C(=O)c2cc(NC(=O)Nc3ccc(C(F)(F)F)cc3)ccc2O1 | inactive |
| COc1ccccc1-c1ccc2c(c1)O[C@@H](CN(C)S(=O)(=O)c1ccccc1)[C@@H](C)CN([C@H](C)CO)S2(=O)=O | inactive |
| COc1ccc(CN(C)C[C@@H]2OCCCC[C@@H](C)Oc3ccc(NC(=O)Nc4c(C)noc4C)cc3C(=O)N([C@H](C)CO)C[C@@H]2C)cc1 | inactive |
| Cc1cc(C(=O)Nc2cccc3c2O[C@@H](CN(C)S(=O)(=O)c2ccc(Cl)cc2)[C@@H](C)CN([C@@H](C)CO)C3=O)n(C)n1 | inactive |
| C[C@@H]1CCCCO[C@@H](CN(C)CC2CCCCC2)[C@H](C)CN([C@@H](C)CO)C(=O)c2cc(N(C)C)ccc2O1 | inactive |
| COCC(=O)N1C[C@H](C)[C@H](OC)CN(C)C(=O)c2ccc(NC(=O)Nc3cccc(F)c3)cc2OC[C@@H]1C | inactive |
| COc1ccc(S(=O)(=O)Nc2ccc3c(c2)C(=O)N([C@H](C)CO)C[C@@H](C)[C@@H](CN(C)S(=O)(=O)c2c(C)noc2C)O3)cc1 | inactive |
| C[C@H](CO)N1C[C@H](C)[C@H](CN(C)Cc2cncnc2)Oc2ncc(C#C[C@@H](C)O)cc2C1=O | inactive |
| C[C@@H]1CN([C@@H](C)CO)C(=O)c2cc(NC(=O)Nc3ccccc3)ccc2O[C@@H](C)CCCCO[C@H]1CN(C)C(=O)Nc1ccc(C(F)(F)F)cc1 | inactive |
| O=C(CCCCCCC(=O)Nc1ccc([C@@H]2O[C@H](CSc3nc(-c4ccccc4)c(-c4ccccc4)o3)C[C@H](c3ccccc3)O2)cc1)NO | inactive |
| C[C@H](CO)N1C[C@H](C)[C@H](CN(C)C(=O)Nc2cccc3ccccc23)Oc2ccc(NC(=O)NC3CCCCC3)cc2C1=O | inactive |
